# According to the supplement of paper PMC3334620:
# Over roughly 33,000 sequences, “E-score (-0.5 to 0.5)” has its median near -0.016; the highest 2% begin near 0.31. The list shows a part of the results.
# Molecular target: Cst6 (UniProt P40535)
# Test: PBM E-score (8-mer binding enrichment) (E-score (-0.5 to 0.5)); higher = stronger / more preferred TF binding; most listed sequences are background and not binding sites
# Conditions: protein concentration: 200 nM; construct: GST-DNA-binding domain
# Summary of the method: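 Yeast transcription factors carrying a GST tag, as full-length proteins or DNA-binding domains, were produced by PURExpress in vitro transcription/translation. About 100-200 nM protein was applied to universal all-10-mer Agilent arrays, double-stranded by primer extension on fresh or once-stripped slides. Bound protein was detected with fluorescent anti-GST, and scans were normalised with masliner. The Universal PBM Analysis Suite gave each ungapped eight-base word, pooled with its reverse complement, an E-score, a modified Wilcoxon-Mann-Whitney statistic.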
row,Sequence,PBM E-score
1,AAAGGGGT,-0.132
2,CCTACTTC,-0.0441
3,ATATACAC,0.144
4,AACAACGG,-0.00393
5,CCGCTCAA,-0.0403
6,GCCTCCGA,-0.162
7,ATCAGCGC,0.00885
8,AGACACTG,-0.103
9,CTGCATCA,0.225
10,AGGGGAAG,-0.156
11,CCTGTGTC,-0.136
12,CGTAGTAC,0.153
13,GATCGGGA,-0.301
14,CTAAATAG,0.00548
15,AGTCAATG,0.0179
16,CCAGTTCA,0.0369
17,GAGGATAC,-0.0323
18,CCTCAGTA,-0.27
19,AATCATTA,0.28
20,CAGGTGGC,-0.0716
21,ATAGTTGC,0.0857
22,ACTTGAAT,0.0974
23,ACCAGCCG,-0.157
24,CGTAGTCA,0.0217
25,TACAGAAA,0.161

row,Sequence,PBM E-score
1,CGACCTCC,-0.109
2,CGGTCAAA,0.106
3,GGAGGAAC,-0.222
4,ATAAGGCG,0.198
5,AGCTCAAA,0.103
6,CGACGTGA,0.0584
7,ATCTCAAG,-0.0306
8,AGGCTTGA,0.0376
9,CAAGACTC,0.0171
10,CCGGTCAA,-0.0667
11,CGGCACCC,0.0278
12,CATCGCGA,-0.0156
13,AAAAACAA,0.219
14,CGTCCTCA,-0.13
15,GGCTGAGA,-0.133
16,ATGCAGAG,-0.231
17,ATGGCGAA,0.117
18,GACAACTC,-0.00913
19,ACCCCCTC,-0.393
20,CCATGGTC,-0.281
21,GTCCATCA,0.0595
22,GTAAGGCA,0.184
23,AGGTCCCG,-0.171
24,CACGGCTG,0.0577
25,CCCCCGGC,-0.364

row,Sequence,PBM E-score
1,ATATGGAG,0.216
2,GATCCCGA,-0.236
3,CAGCCCCC,-0.432
4,CTGGGAGA,-0.226
5,AGCTGGGG,-0.3
6,GTACCGAA,-0.18
7,ACGAATTC,0.07
8,CGCACCAA,-0.0458
9,GGGATCGA,-0.0556
10,ACCGTACC,-0.246
11,TCCATGAA,0.127
12,CGAGCAAC,0.0833
13,GGTTACCA,-0.022
14,GCCCCCGC,-0.278
15,ACGGCCAT,-0.158
16,GACGCTGA,0.119
17,GCTTGACA,-0.0835
18,AACTGTGT,0.0284
19,AGCAAGCA,-0.252
20,ATTGTTAA,0.0366
21,CACCGCTA,-0.187
22,CTGTTAAG,0.0326
23,GTCGATTA,0.159
24,TCACGTAA,0.415
25,CGGCCAAA,0.0839

row,Sequence,PBM E-score
1,CGTCACTA,0.459
2,CCAATCAG,-0.248
3,AGCGGCAG,-0.0498
4,CCGTGTTA,0.109
5,ACCTTTAG,-0.128
6,ACTAAGGC,0.0517
7,ATGTACTA,0.00765
8,CCTGTTAA,-0.0298
9,ATAGAACA,-0.00601
10,AAAGGTCT,-0.0315
11,AGAGTGTA,-0.208
12,ACGCGGAT,0.16
13,ATTTCCCG,0.181
14,TAGAGGAA,-0.0838
15,ATCACGCA,0.219
16,AAAGCGCT,0.183
17,GTAGCGGA,-0.0921
18,CGTCGGGA,-0.197
19,CTGGTCGC,-0.216
20,ATTGGCAA,0.136
21,CTGGTTAA,0.0494
22,CCTCTTAG,0.00859
23,ATGTGGAA,0.136
24,GGAATAAC,-0.134
25,CGGCCCAC,-0.154

row,Sequence,PBM E-score
1,GGCATCGA,0.00938
2,CCCTCCGC,-0.291
3,AATACACA,0.172
4,ACTTCAGA,0.0307
5,TAGCGCCA,-0.055
6,CAACTGAG,-0.00284
7,GACAACCA,0.0565
8,CGGTCAAC,-0.0265
9,AGACGCCG,0.102
10,GAAGCCGA,0.00104
11,TAGGGATA,-0.00602
12,ACGTGTGA,0.17
13,ATAACGCC,0.253
14,ACTGTTCG,0.0374
15,ATCGCGTA,0.124
16,AACTCTTC,-0.178
17,TAAACGTA,0.188
18,AACCGGTG,-0.163
19,ACCTATGG,-0.0155
20,CTATCCCA,-0.121
21,GAGAAACC,-0.208
22,AGACGAGG,-0.287
23,CCTCCTTA,-0.202
24,AGTAATTA,0.175
25,CGGGAATC,-0.251

row,Sequence,PBM E-score
1,GCTGGGCC,-0.353
2,TATTCACA,0.101
3,CACTCGCG,0.0405
4,TAGTTTGA,0.0422
5,CTCGTACA,-0.0362
6,GTCCGGGA,0.0127
7,ATAATTCC,0.181
8,ACCTACCC,-0.276
9,ATCTCACA,0.0693
10,CCAATATC,0.0205
11,CCTCACGA,-0.148
12,TGCGAAAA,0.215
13,TAACATTA,0.0995
14,AGCAAAGC,-0.0555
15,GGTTCTCA,0.0118
16,CACTTCGG,0.118
17,AGTGGCAG,-0.00336
18,ATTATATG,0.306
19,CTCAATGA,0.14
20,CCCCGTAG,-0.217
21,CGTGCGAC,0.0141
22,TAGGACCA,-0.232
23,CATCCAAA,0.0363
24,CCTCTCAG,-0.391
25,GACTCCGC,-0.204

row,Sequence,PBM E-score
1,GGCGCTAA,0.0329
2,CTTTGCAA,-0.0189
3,ACCGGAAC,-0.0572
4,ACCCGTTG,-0.244
5,AGACGTTG,-0.055
6,AGTAGTTC,0.122
7,CAAGCGCC,-0.0407
8,CACAGGAC,-0.0491
9,AGGGTTGC,-0.143
10,ACTTTAGG,-0.151
11,AAATCGAT,0.0382
12,GTCGGGCA,-0.176
13,ACCTAGAG,-0.274
14,CCAGCCAC,-0.133
15,ATTATTGA,0.167
16,GAGCCTAC,-0.0177
17,ATGAAACG,0.0842
18,CCCCGTAA,0.0481
19,GAAAAGTC,-0.00152
20,AAGAGAGG,-0.0883
21,AAATGTTG,0.0786
22,TACATGGA,-0.211
23,AGAATGCT,0.0256
24,AGGTGTCG,-0.147
25,CTGGCCCA,-0.26

row,Sequence,PBM E-score
1,AGCCGCTA,-0.2
2,CATCAGGA,0.0688
3,AGACACCC,-0.15
4,AATCAAGC,0.102
5,CAACTTAC,-0.0734
6,AATTAATA,0.39
7,ATAATATA,0.358
8,ATCACGTG,0.135
9,CGCTCCAG,-0.138
10,GAGTGCGC,-0.044
11,ATATGATA,0.296
12,TCAGAGCA,-0.068
13,AAATTCCA,0.226
14,GCACGGCA,0.353
15,GGGAGGTA,-0.217
16,ACAACAAC,0.181
17,ACTCAAAT,0.132
18,GACTTAAC,-0.167
19,ACGCTGTG,0.188
20,ACCCGGTC,-0.349
21,ACTTATTC,0.0144
22,AAGCTTCG,-0.281
23,CCGGCTTC,-0.144
24,GAGGGTGC,-0.366
25,AAGTTGAT,0.0864

row,Sequence,PBM E-score
1,CCTCTCTC,-0.36
2,ACTGATGC,-0.0908
3,AGTGTCTG,-0.128
4,CATAATCA,0.265
5,TCGTGCAA,0.116
6,CGCATGAC,0.268
7,CAACGTTA,0.119
8,GACGGGGC,-0.0314
9,AATTCACA,0.244
10,CTACACAC,0.0193
11,AATAAGCG,-0.00311
12,CCCGTAGC,-0.305
13,GGGGGCCA,-0.348
14,ATTACTAA,0.26
15,ACCCATTC,-0.104
16,ATACTATG,0.124
17,ACATGCTG,-0.107
18,ATAATGGA,0.109
19,GTCAGAAA,0.201
